In PubChem BioAssay AID463173 (ICCB-Longwood Screening Facility, Harvard Medical School, 2010) one finds survival data, which are given here for 88 molecules.

In all, about 52,000 compounds went through this assay and about 4,300 (8.3%) were called active. Rule as the data show it: active = survival mostly below about 52% (no sharp cut-off); inactive = mostly above about 56%. This is one part of the list.

The subject of the assay is DeltatarO mutant. The assay can be described thus: S. aureus survival, RN4220 and DeltatarO strains – OD600, teichoic acid synthesis inhibitors, primary screen (AID 463173). Conditions: S. aureus RN4220 wild type/DeltatarO growth, OD600, 18 h, hits give low values, screened at 18.75 µg/mL (by protocol).
For `CC(C)OCCCNC(=O)C(=O)Nc1c2c(nn1-c1ccccc1)CS(=O)(=O)C2`, the survival was active: -5%.

On to `CCc1ccccc1NS(=O)(=O)c1ccc2nc(-c3ccccc3)[nH]c2c1`, for which the survival was inactive: 86%.

As for `O=C(O)c1ccc(-c2ccc(/C=N/N3C(=O)C4C(C3=O)C3C=CC4C34CC4)o2)cc1` (stereo not drawn), the survival is inactive: 91%.

Regarding `Cc1ccc(N2C(=O)c3n[nH]c(C)c3C2c2ccc(Cl)cc2)cc1` (stereo not drawn), the survival is active: 6%.

For the molecule `Cc1cc(C)cc(NC(=O)CSc2oc(-c3ccccc3)nc2S(=O)(=O)c2ccc(Cl)cc2)c1`, the survival is inactive: 73%.

For `CCOC(=O)c1ccccc1NC(=O)Cn1ncc2c1-c1ccccc1OC2`, the survival was inactive: 73%.

Regarding `CCOC(=O)c1[nH]c2c(c1Cc1ccccc1OC)C(=O)CC(c1ccc(OC)cc1)C2` (stereo not drawn), the survival was inactive: 87%.

In the case of `Cc1ccccc1CSc1nnc2[nH]c(=O)cc(-c3ccccc3)n12`, the survival was inactive: 67%.

Regarding `CCc1ccc(-n2c(=O)c3c4c(sc3n(Cc3cc(=O)n5c(C)cccc5n3)c2=O)CCC4)cc1`, the survival was inactive: 133%.

Take `O=C(Cc1ccc(F)cc1)N/N=C/c1ccc(-c2ccc(Cl)c(C(=O)O)c2)o1`: the survival was inactive: 95%.

On to `Cc1ccc(NC(=O)Cn2nc(C(F)(F)F)c3c2CCCC3)cc1C`, for which the survival is inactive: 63%.

As to `CC1CCc2nc3ncn(Cc4ccc(Cl)cc4)c(=O)c3cc2C1` (stereo not drawn), the survival is inactive: 85%.

With `Cc1ccc2nc(-c3ccc(Cl)c(NC(=O)c4ccc5c(c4)OCCO5)c3)oc2c1`, the survival is inactive: 71%.

As for `Cc1nnc(NCc2ccc(Cl)cc2)c2c1nnn2Cc1ccc(F)cc1`, the survival was inactive: 79%.

In the case of `CCCCOc1ccc(C(=O)Nc2ccc(S(=O)(=O)Nc3nc(C)cc(C)n3)cc2)cc1`, the survival was inactive: 60%.

Regarding `COC(=O)c1ccccc1NC(=O)c1cc(-c2ccc(Cl)cc2)on1`, the survival was inactive: 73%.

Take `NC(=S)N/N=C/c1ccc(Sc2cccc3cccnc23)o1`: the survival is inactive: 104%.

In the case of `O=C(/C=C/c1ccccc1)C1=C(O)C(=O)N(CCO)C1c1ccc2c(c1)OCO2` (stereo not drawn), the survival was inactive: 79%.

`O=C(Cn1nc(-c2ccccc2)c2cnc3ccccc3c21)Nc1ccccc1`: the survival was inactive: 76%.

Turning to `Cc1ccc(Cn2nnc3sc4c(c3c2=O)CCC(C)C4)cc1` (stereo not drawn), the survival was active: 54%.

As for `CCC(=O)N1CCc2cc(CNS(=O)(=O)c3c(C)cc(C)cc3C)ccc21`, the survival was inactive: 79%.

Consider `Cc1cc(C)nc(NS(=O)(=O)c2ccc(NC(=O)c3ccccc3O)cc2)n1`, for which the survival is inactive: 139%.

`CCCCOc1ccc(C(=O)N2CC(=O)Nc3ccc(Br)cc3C2c2ccc(F)cc2)cc1` (stereo not drawn): the survival is active: 39%.

On to `COc1ccc2c(Sc3ccccc3)c(C(=O)NCC(C)c3ccccc3)[nH]c2c1` (stereo not drawn), for which the survival is inactive: 84%.

With `Cc1cc(C)cc(-n2c(SCC(=O)N3CCCC3)nc3c([nH]c4ccccc43)c2=O)c1`, the survival was inactive: 89%.

Take `Cc1nn(C(=O)c2ccccc2)c2c1C(=O)CC(C)(C)C2`: the survival is inactive: 74%.

Take `Cn1c(=O)n(-c2ccc3c(c2)OCO3)c2nc(-c3ccc(Cl)cc3)nc(C(N)=O)c21`: the survival was inactive: 61%.

For `CCC(c1nnnn1Cc1ccccc1)N(Cc1cccs1)Cc1cc2ccc(C)cc2[nH]c1=O` (stereo not drawn), the survival is inactive: 103%.

As to `O=C(CCC1N=C2c3ccccc3N=C(SCc3ccccc3Cl)N2C1=O)NCCc1ccccc1` (stereo not drawn), the survival was inactive: 96%.

For `Cc1ccccc1NC(=O)CSc1nc(-c2ccc(F)cc2)nc2c1Cc1ccccc1O2`, the survival was inactive: 86%.

In the case of `Cc1nc2ccccc2n1CCc1nc2c3ccccc3nc(SCC(=O)Nc3cccc(C(F)(F)F)c3)n2n1`, the survival is inactive: 85%.

In the case of `CCc1ccc2ncc(S(=O)(=O)c3ccc(Cl)cc3)c(N3CCN(CC)CC3)c2c1`, the survival is inactive: 78%.

In the case of `O=C(/C=C/c1ccccc1)NC1CCSC1=O` (stereo not drawn), the survival was inactive: 107%.

For `CC(C)CN(CCCNC(=O)c1cc(-c2ccc(Br)s2)nc2ccccc12)CC(C)C`, the survival was inactive: 91%.

`COc1ccc(CCNC(=O)C2(c3cccs3)CCOCC2)cc1`: the survival is inactive: 122%.

As to `O=C(Nc1nonc1-c1ccc(Cl)cc1)c1ccccc1F`, the survival is inactive: 49%.

With `COc1ccc(N2CC(NC(=O)/C=C\c3ccc4c(c3)OCO4)CC2=O)cc1` (stereo not drawn), the survival was inactive: 78%.

In the case of `COc1ccc(NC(=O)C2CCN(S(=O)(=O)c3ccc4[nH]c(=O)ccc4c3)CC2)cc1Cl`, the survival was inactive: 124%.

Turning to `COc1cc(OC)c(NC(=O)C(c2ccccc2)N2Cc3ccccc3C2=O)cc1Cl` (stereo not drawn), the survival is inactive: 73%.

`CCS(=O)(=O)N1CC(=O)N(c2ccc(Cl)cc2C)C(C)(C(=O)NC2CCCCCC2)C1` (stereo not drawn): the survival is inactive: 83%.

For the molecule `CCc1nnc(SCc2cccc(F)c2)c2cc3sc(C)cc3n12`, the survival is inactive: 74%.

As for `CCOc1ccc(N2CC(c3nc4ccccc4n3CCCOc3ccccc3OC)CC2=O)cc1` (stereo not drawn), the survival was inactive: 81%.

As to `CCS(=O)(=O)N1CCN(C(=O)c2ccccc2Cl)CC1`, the survival was inactive: 82%.

Take `O=C(Nc1ccc(F)c(Cl)c1)C1CCN(C(=O)c2ccc(F)cc2)CC1`: the survival is inactive: 68%.

`N#Cc1ccccc1Cn1c(=O)n(CCCC(=O)NCc2ccccc2Cl)c(=O)c2ccccc21`: the survival is inactive: 129%.

Consider `O=C(NCc1ccccc1Cl)C1CCN(S(=O)(=O)Cc2ccccc2)CC1`, for which the survival was inactive: 80%.

Turning to `COc1ccc(Cl)cc1NC(=O)CSC1=Nc2ccccc2C2=NC(CCC(=O)NCc3ccc(F)cc3)C(=O)N12` (stereo not drawn), the survival is inactive: 107%.

Regarding `Cc1nc2ccn(Cc3ccco3)c(=O)c2cc1C(=O)NCc1ccccc1F`, the survival is inactive: 86%.

Take `Cc1nnc(SCc2cc(=O)n3cccc(C)c3n2)s1`: the survival was inactive: 97%.

`COCCCNC(=O)c1ccc(Cn2c(=O)c3ccccc3n(CC(=O)Nc3c(C)cccc3C)c2=O)cc1`: the survival is inactive: 80%.

For the molecule `CCOc1cc(C(=O)Nc2ccc3nc(Nc4cccc(Cl)c4)cc(C)c3c2)cc(OCC)c1OCC`, the survival was inactive: 98%.

`Cc1cccc(CCNC(=O)C2CCC(CNS(=O)(=O)c3ccccc3)CC2)c1` (stereo not drawn): the survival was inactive: 77%.

`CCCC(CCC)C(=O)Nc1cccc(-c2nc3cccnc3s2)c1C`: the survival was inactive: 110%.

With `COc1cccc(-c2nc(CS(=O)(=O)CC(=O)NCCc3ccc(OC)cc3OC)c(C)o2)c1`, the survival is inactive: 58%.

`O=C(NCCc1csc2nc(-c3ccccc3F)nn12)c1ccccc1C(F)(F)F`: the survival is inactive: 82%.

Regarding `COc1cccc(CN(C(=O)c2ccc(C(C)(C)C)cc2)C2CCS(=O)(=O)C2)c1` (stereo not drawn), the survival was inactive: 70%.

As to `O=C(CN1CCC(N2CCCCC2)CC1)Nc1ccc2c(c1)OCCO2`, the survival is inactive: 96%.

For `CCOC(=O)Cn1c(=O)oc2cc(S(=O)(=O)N3CCN(c4ccccc4OC)CC3)ccc21`, the survival is inactive: 65%.

`O=C(CN1C(=O)c2cccc3cccc1c23)Nc1ccccc1`: the survival is inactive: 70%.

Consider `OC1(c2ccccc2)CCN(Cc2ccccc2)CC1`, for which the survival is inactive: 73%.

Take `CCOC(=O)c1c(NC(=O)CCCOc2ccc(Cl)cc2)sc2c1CCC2`: the survival is active: 17%.

Take `COc1ccc(CNC(=O)c2ccc(NC(=O)N3CCSc4ncccc43)cc2)cc1OC`: the survival was inactive: 76%.

Take `COc1ccc(-c2oc3ncn4nc(COc5ccc(C)cc5)nc4c3c2-c2ccc(OC)cc2)cc1`: the survival is inactive: 82%.

Consider `COc1ccc(NC(=O)c2cnn(-c3ccc(F)cc3F)c2C2CCN(C(=O)OC(C)(C)C)CC2)cc1Cl`, for which the survival is inactive: 72%.

Regarding `O=C(C1CCCN(S(=O)(=O)c2cccc3nonc23)C1)N1CCN(c2ccccc2Cl)CC1` (stereo not drawn), the survival is inactive: 69%.

As to `COc1ccc(CCNC(=O)c2ccc3nc(Cc4ccccc4)oc3c2)cc1OC`, the survival is inactive: 99%.

`COc1ccc(N(CC(=O)NCCc2ccccc2)S(=O)(=O)c2ccc(OC)c(OC)c2)cc1`: the survival was inactive: 61%.

Turning to `Cc1cc(=O)[nH]c(SCc2nnc(-c3ccccc3)o2)n1`, the survival was inactive: 103%.

Take `CCCOc1ccc(C(=O)Nc2ccc3nn(-c4ccc(OC)c(Cl)c4)nc3c2)cc1`: the survival was inactive: 128%.

As to `Cc1ccccc1NC(=O)c1c(C)oc2ccc(O)c(CN3CCC(C)CC3)c12`, the survival was inactive: 84%.

As for `COCCCNC(=O)c1ccc(Cn2c(=O)c3ccccc3n(Cc3ccccc3C)c2=O)cc1`, the survival is inactive: 103%.

On to `CCOc1ccc(-c2nnc(SCC(=O)Nc3cc(F)ccc3F)o2)cc1`, for which the survival is inactive: 60%.

Take `COc1cccc2c1Oc1nc(-c3ccccc3)nc(SCC(=O)Nc3ccccc3)c1C2`: the survival was inactive: 81%.

Turning to `COc1ccc(NC(=O)Cn2c(=O)oc3cc(S(=O)(=O)N4CCCCC4C)ccc32)cc1` (stereo not drawn), the survival was active: 47%.

In the case of `Cc1oc(-c2ccc(C(=O)NC(C)c3ccccc3)cc2)nc1CS(=O)(=O)c1ccccc1` (stereo not drawn), the survival is inactive: 96%.

As to `COC(=O)c1ccccc1NC(=O)CCCN1C(=O)C(c2ccccc2)Oc2cccnc21` (stereo not drawn), the survival was inactive: 78%.

On to `CCOc1ccccc1NC(=O)n1ncc2cc(Cl)ccc21`, for which the survival is inactive: 99%.

Regarding `C=CCNC(=O)CN1CCC(n2nnc3cc(C(F)(F)F)ccc32)CC1`, the survival is inactive: 79%.

As for `Cc1ccc(CCNC(=O)c2ccc(CS(=O)(=O)c3ccc(Cl)cc3)o2)cc1`, the survival is inactive: 102%.

As for `COCCNC(=O)CCCN1C(=O)CCn2nc(-c3cccn3C)cc21`, the survival was inactive: 86%.

For `COc1ccc(CCn2c(=O)[nH]c3cc(C(=O)N4CCN(c5ccccc5)CC4)ccc3c2=O)cc1OC`, the survival is inactive: 73%.

For the molecule `Fc1ccc(-c2cn3cc(Cc4ccccc4Cl)sc3n2)cc1`, the survival was active: 42%.

`Cc1cc(O)c(C(c2ccc(Cl)cc2)N2CCN(c3ccccc3)CC2)c(=O)n1Cc1ccco1` (stereo not drawn): the survival was inactive: 83%.

With `Cc1cc2ccccc2n1CCNC(=O)c1ccc(F)cc1`, the survival was inactive: 85%.

In the case of `CCN1C(=O)C2(c3ccccc31)c1c(oc3ccc(C)cc3c1=O)C(=O)N2CCCOC(C)C` (stereo not drawn), the survival is inactive: 49%.

Turning to `CC1=C(c2ccc(C)cc2)S(=O)(=O)N(Cc2ccc(C(=O)Nc3ccccc3C)cc2)C1=O`, the survival was inactive: 94%.

As to `Cc1ccc(Cl)cc1N(C)C(=O)c1noc2c1CCCCC2`, the survival is inactive: 57%.

In the case of `COc1ccc(NC(=O)c2sc3nc(C)c(C(=O)Nc4ccc(C)cc4C)c(-c4ccccc4Cl)c3c2N)cc1`, the survival is inactive: 89%.
